Here are results for 25 compounds from PubChem BioAssay AID463173 (ICCB-Longwood Screening Facility, Harvard Medical School, 2010).

Screen size: about 52,000 compounds; about 1,700 (3.3%) were called active. Cut-off read from the data, not from the text of the source: active = survival mostly below about 52% (no sharp cut-off); inactive = mostly above about 56%. The list shows a part of the results.

The test relates to Wild type. Kind of test: S. aureus survival, RN4220 and DeltatarO strains – OD600, teichoic acid synthesis inhibitors, primary screen (AID 463173). Particulars: S. aureus RN4220 wild type/DeltatarO growth, OD600, 18 h, stronger effect = lower value, screened at 18.75 µg/mL (by protocol).
Take `O=C(CCNS(=O)(=O)c1ccc2c(c1)CCN2C(=O)C1CC1)Nc1ccc(F)cc1F`: the survival was inactive: 59%.

On to `COc1ccc(N2CC(NC(=O)c3ccc(S(=O)(=O)N4CCCCC4)cc3)CC2=O)cc1OC` (stereo not given), for which the survival was inactive: 126%.

In the case of `Cc1cccc(NC(=O)c2cc(S(=O)(=O)N3CCC4(CC3)OCCO4)ccc2F)c1`, the survival was inactive: 87%.

As for `O=C(C1=C(N2CCCCC2)c2ccccc2S(=O)(=O)N1)c1ccccc1`, the survival is inactive: 100%.

With `CCSc1ncc(Cl)c(C(=O)Nc2c(C(=O)c3ccccc3)oc3ccccc23)n1`, the survival is inactive: 90%.

In the case of `Cc1ccccc1CN1CCN(CC(=O)NCc2ccccc2Cl)C1=O`, the survival is inactive: 77%.

With `O=C(NCCc1csc(-c2ccc(F)cc2)n1)c1ccc(Br)o1`, the survival was inactive: 73%.

Take `Cc1nc2cc(-c3ccccc3)nn2c(C)c1CCC(=O)N1CCN(c2ccccc2)CC1`: the survival is inactive: 69%.

Consider `COc1ccc2oc(-c3ccc(C)c(NC(=O)Cc4ccc(Cl)cc4)c3)nc2c1`, for which the survival is inactive: 140%.

For the compound `Cc1cccc(-c2nc(Cn3c(SCc4cccc(C(F)(F)F)c4)nc4ccncc43)c(C)o2)c1`, the survival was inactive: 81%.

Take `Cn1cnc2c(=O)oc3ccc(S(=O)(=O)N4CCN(c5cccc(Cl)c5)CC4)cc3c21`: the survival was active: -6%.

Take `Cc1c(NC(=O)c2cc(=O)c3cc(Cl)ccc3o2)c(=O)n(-c2ccccc2)n1C`: the survival is inactive: 82%.

Turning to `Fc1ccc2c(c1)NC(c1ccncc1)=NC(c1cccs1)=N2`, the survival was inactive: 47%.

Take `Cc1nc2c(C(=O)NC(C)c3ccccc3)cnn2c(C)c1Cc1ccccc1` (stereo not given): the survival was inactive: 68%.

As for `COC(=O)c1cc2occc2n1Cc1nc(-c2ccc(C)cc2)oc1C`, the survival was inactive: 48%.

With `CCN(CC)C(=O)c1ccccc1C`, the survival is inactive: 102%.

Consider `CCC(=O)Nc1nnc(S(=O)(=O)N2CCc3ccccc32)s1`, for which the survival is inactive: 81%.

With `Cn1cnnc1SCC(=O)O`, the survival was inactive: 111%.

As for `CC(C)c1ccc(N2C(=O)CSC23C(=O)N(Cc2ccccc2)c2ccccc23)cc1` (stereo not given), the survival was inactive: 68%.

Consider `Cc1ccc(NC(=O)Cn2c(=O)n(Cc3nc(C)no3)c(=O)c3cc4c(cc32)OCO4)cc1`, for which the survival is inactive: 90%.

With `COc1ccc(NC(=O)N2CCN(S(=O)(=O)c3ccc4c(ccn4C)c3)CC2)c(OC)c1`, the survival is inactive: 87%.

As for `COC1CCC(C(=O)Nc2nc(-c3ccc4c(c3)CCN4S(C)(=O)=O)cs2)CC1` (stereo not given), the survival was inactive: 103%.

Turning to `O=C(/C=C/c1ccccc1Cl)Nc1nc(-c2cccs2)ns1`, the survival is inactive: 73%.

For the compound `CC(Oc1ccccc1)C(=O)Nc1c[nH]c(=O)[nH]c1=O` (stereo not given), the survival is inactive: 105%.

In the case of `O=C(Cn1cc(SCc2c(F)cccc2Cl)c2ccccc21)N1CCCC1`, the survival was inactive: 92%.
